Results: PubChem BioAssay AID1963576 (National Center for Advancing Translational Sciences (NCATS), 2024)
The whole screen tested about 46,000 compounds, of which about 60 (0.1%) were called active. Inconclusive results (about 3%) are left out. Calls come from the whole dose curve; as a rule, active = well fitted inhibition curve with a large enough effect; inconclusive = small, poorly fitted or top-dose-only effect; inactive = no such curve, though single readings can be large or run the other way. This is one part of the list.

Test: Primary qHTS assay for Inhibitors of ovarian cancer metastasis using an organotypic tumor microenvironment (TME) model.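 For activity change, negative = inhibition: plate controls were DMSO wells for no effect and tomatine positive control wells for full effect.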 Note: nearly all actives have a fitted effect of over 65% in size.
Details: SKOV3ip1-GFP adhesion/invasion on 3D omental model, fluorescence; series mostly up to 45.8 µM; activity change, negative = inhibition: at the top concentration
In short: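 qHTS, 4-pt dose (0.36-46 umol/L); SKOV3ip1-GFP, 1,200 cells/well, no FBS; primary omental fibroblast/mesothelial co-culture 48 h pre-grown; 2 h RT + 16 h 37 C; PBS wash, 4% PFA; GFP count 488/509 nm.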

outcome, inactive:
Cc1ccc(OCCSc2nc3ccc(NC(=O)c4ccc(F)cc4)cc3s2)cc1
Cc1ccc(Cc2cn3cc(-c4ccc(F)cc4)nc3s2)cc1
Cc1cccc(NC(=O)c2cc(S(=O)(=O)N3CCCCCC3)cn2C)c1C
Cc1cc(C)n(-c2nc(C)c(C)c(=O)n2CC(=O)Nc2ccc(OC(F)(F)F)cc2)n1
Cc1ccc(CNC(=O)c2ccc(Cn3c(=O)c4ccccc4n(CC(=O)Nc4c(C)cc(C)cc4C)c3=O)cc2)cc1
COCCn1c(=O)[nH]c2cc(C(=O)N3CCN(c4ccccc4)CC3)ccc2c1=O
O=C(NCc1ccccc1)c1cccn1-c1nnc(N2CCCC2)s1
CCOc1ccc(CNC(=O)c2nn(-c3ccc(OC)cc3)c(=O)c3c2c2ccccc2n3C)cc1
CCn1cc(C(=O)NCCCOC)c(=O)c2cc(S(=O)(=O)N3CCc4ccccc4C3)ccc21
COc1ccc2c(c1)c1c(c(=O)n(Cc3ccccc3)c(=O)n1Cc1cccc(Cl)c1)n2C
CCOC(=O)C1CCCN(CC(=O)Nc2cc(C)c3c(=O)oc4ccccc4c3n2)C1 (stereo unspecified)
Cn1cc(S(=O)(=O)N2CCCCCC2)cc1C(=O)Nc1ccc(Cl)c(C(F)(F)F)c1
COc1ccc(CCNC(=O)c2ccc(Cn3c(=O)c4ccccc4n(Cc4cccc(F)c4)c3=O)cc2)cc1OC
CCc1ccc(NC(=O)C2CCCN2S(=O)(=O)c2ccc3c(c2)CCCC(=O)N3)cc1 (stereo unspecified)
CCn1c(=N)c(C(=O)NCc2ccccc2)cc2c(=O)n3cccc(C)c3nc21
CCOc1ccc(CCNC(=O)CN2C(=O)COc3ccc(S(=O)(=O)N4CCCC4)cc32)cc1
Cc1ccc(C(C)C)c(OCC(O)CN2CCN(c3ccccc3F)CC2)c1 (stereo unspecified)
N#Cc1c(C(F)(F)F)cc(-c2ccc(F)cc2)nc1SCC(=O)Nc1ccccc1
CCOC(=O)c1ccc(N2C(=O)c3n[nH]c(-c4ccco4)c3C2c2cccc(OC)c2)cc1 (stereo unspecified)
CCc1ccc(CNc2ccc3c(c2)ncn3C(C)(C)C)cc1
O=C(CCS(=O)(=O)c1ccc(Br)cc1)Nc1ccc(F)cc1F
CC(=O)N1CCc2cc(S(=O)(=O)CCC(=O)Nc3ccc(C)cc3Br)ccc21
Cc1cc(OC(C)C(=O)Nc2cccc(-c3nc4ccccc4o3)c2)cc(C)c1Cl (stereo unspecified)
CCC(C(=O)Nc1ccc(C)c(C)c1)n1c(=O)c(C(F)(F)F)nc2ccccc21 (stereo unspecified)
Cc1ccc(CNC(=O)CCCn2c(=O)c3ccccc3n(CC(=O)Nc3ccc(C)cc3)c2=O)cc1
COc1cccc(NC(=O)Cn2c(=O)n(CCC(=O)NCCc3ccc(Cl)cc3)c(=O)c3ccccc32)c1
Cc1ccc(CNC(=O)CS(=O)(=O)c2cccc3nsnc23)cc1
Cc1ccc(CNC(=O)c2cc3c(=O)n(Cc4ccco4)ccc3nc2C)cc1
COc1cc(-c2noc(-c3ccc(NCC4CCCO4)c([N+](=O)[O-])c3)n2)cc(OC)c1OC (stereo unspecified)

Activity change, negative = inhibition, inactive:
COc1cccc(-c2cn3ncsc3n2)c1 -4.47%
COc1ccc(-c2c(C)c3ccc(O)c(CN4CCCC4)c3oc2=O)cc1OC -0.873%
Cc1ccc(NC(=O)Cn2cc(C(=O)C3CC3)c3ccccc32)cc1C -41.3%
COc1ccc(OCc2nc(-c3ccc(-n4cccc4)cc3)no2)cc1 -8.62%
Cc1ccccc1CSc1ccc(-c2cccs2)nn1 8.65%
O=C(NCC(c1cccs1)S(=O)(=O)c1cccs1)c1cccc(F)c1 (stereo unspecified) 34.3%
COc1ccc(-c2nc3ccccc3n3c(-c4ccccc4)c4c(=O)n(C)c(=O)n(C)c4c23)cc1OC -3.81%
O=c1oc2c3c(ccc2c2ccccc12)OCN(Cc1ccc(Cl)cc1)C3 -10.4%
COc1ccc(OC)c(-n2nnc(-c3nc(-c4cc(OC)c(OC)c(OC)c4)no3)c2C)c1 -0.0608%
c1cnc(N2CCN(c3ncc4c(n3)CCNC4)CC2)nc1 8.72%
COc1ccc(-n2nnnc2C2CCN(S(=O)(=O)c3ccc(C)cc3)CC2)cc1 -6.47%
COc1cc2c(cc1OC)C(COc1ccc3c(C)cc(=O)oc3c1)N(C(=O)c1ccccc1C)CC2 (stereo unspecified) 0.673%
CC(=O)N1c2ccccc2C(C)(c2ccc(C)cc2)CC1(C)C (stereo unspecified) -5.97%
CN1C(=O)c2ccccc2Sc2ccc(NC(=O)N3CCN(c4ccccc4)CC3)cc21 -29.9%
O=C(O)C=Cc1ccc(O)c(O)c1 -24.9%
Cc1ccc(-c2ccc(CCC(=O)O)n2-c2ccc(C(N)=O)cc2)cc1 7.63%
NC(=O)CSc1ncc2c(n1)-c1ccccc1N(Cc1ccc(F)cc1)S2(=O)=O 1.97%
CC1=C(c2ccc(C)cc2)S(=O)(=O)N(Cc2ccc(C(=O)Nc3ccc(C)c(F)c3)cc2)C1=O -5.18%
CCOc1ccc(C(=O)Nc2ccc3nc(SCC(=O)N4CCc5ccccc54)sc3c2)cc1 -5.92%
CC(=O)N1CCc2cc(S(=O)(=O)NC(Cc3ccccc3)C(=O)Nc3cc(C)ccc3C)ccc21 (stereo unspecified) -1.84%
Cc1cc(C)c2oc(-c3ccc(Cl)c(NC(=O)c4cccs4)c3)nc2c1 33.5%
COc1ccccc1NC(=O)c1cnc(SCC(=O)N2CCOCC2)n(C)c1=O -13.9%
COc1ccc(-c2cc3ccc(O)c(CN4CCCC4)c3oc2=O)cc1 -7.74%
Cc1ccc(-c2c(C(=O)NCCc3ccccc3)oc(=O)c3ccccc23)cc1 -9.85%
CCCSc1nc(-c2ccccc2)[nH]c1S(=O)(=O)c1ccc(C)cc1 7.75%
COc1ccc(-c2n[nH]c3c2cnc2ccc(F)cc23)cc1 -1.64%
Cc1cc(C)cc(NC(=O)C2CCN(S(=O)(=O)c3cn(C)cn3)CC2)c1 26.4%
O=c1oc2ccc3ccccc3c2cc1-c1nnc(Nc2ccccc2F)s1 -3.68%
CCCOc1ccc(C2C(=O)N(C3CCC(C)CC3)CC(=O)N2Cc2cccc(OC)c2)cc1OC (stereo unspecified) 4.63%
COc1ccc(NS(=O)(=O)c2cc3c(cc2C)N(C(C)=O)CCO3)cc1 -5.69%
CC1=Nc2cc(C(=O)N3CCC(C)CC3)ccc2Sc2ccc(Cl)cc21 -4.08%
CCc1cccc(C)c1NC(=O)Cn1nnc(-c2nc(-c3ccccc3F)no2)c1N -9.84%
Cc1cc2c(cc1NS(=O)(=O)c1cccc(C#N)c1)n(C)c(=O)c(=O)n2C 4.39%
COc1ccc(Cl)cc1S(=O)(=O)NCc1ccc2c(c1)CCN2C(=O)c1cccc(C)c1 -8.97%
CC(C)c1ccc(C2NC(=O)c3n[nH]c(-c4cccs4)c32)cc1 (stereo unspecified) -0.615%
Cc1cc(CN2CCN(c3c(Br)cnc4nc(-c5ccc(N6CCN(C)CC6)cc5)[nH]c34)CC2)no1 2.81%
Cc1cccc(-c2nc(C)c(CCNC(=O)C(=O)Nc3ccccc3C#N)s2)c1 5.39%
COc1ccc(-n2nnnc2C2CCN(S(=O)(=O)c3ccc(NC(C)=O)cc3)CC2)cc1 4.5%
Cc1cccc(NC(=O)CSc2nc(-c3ccccc3)cc(=O)[nH]2)c1C 3.03%
Cc1ccc(NC(=O)CCC(=O)N2Cc3ccccc3Oc3ncccc32)c(C)c1 10.2%
Cc1ccc(CNC(=O)C(C)n2nc(C)n3c(cc4sccc43)c2=O)cc1 (stereo unspecified) 4.4%
CCOC(=O)C1CCCN(C(=O)c2ccc3c(c2)sc2nc(-c4ccc(CC)cc4)cn23)C1 (stereo unspecified) -13.3%
Cc1ccc(S(=O)(=O)N(CC(=O)Nc2ccc(Cl)cc2Cl)c2ccccc2C)cc1 -7.84%
COc1ccccc1C(=O)Nc1cccc(C(=O)OCc2cc(=O)n3ccsc3n2)c1 9.27%
COc1ccc(NC(=O)CCc2c(C)nn(-c3ccc(N4CCCCC4)nn3)c2C)cc1Cl 11.9%
Cc1ccccc1NC(=O)CSc1nc2ccccc2c2nc(CCn3cncc3C)nn12 -13.2%
Cc1ccc(Cn2ccnc2SCC(=O)NCc2ccccc2Cl)cc1 -4.29%
CCn1c(C(=O)N2CCC(C(=O)NCCc3ccc(C)cc3)CC2)cc2sccc21 -16.4%
COC(=O)c1ccc2c(=O)n(CCCCCC(=O)NCCc3ccc(Cl)cc3)c(=O)[nH]c2c1 6.64%
Cc1oc(-c2ccc(C(=O)NCc3cccc(F)c3)cc2)nc1COc1ccccc1 -4.47%
CCc1nc2ccc(C(=O)NCc3cc(OC)ccc3OC)cc2nc1CC 10.7%
CCOc1ccc(N2CC(c3nc4ccccc4n3CCOc3ccccc3OC)CC2=O)cc1 (stereo unspecified) -9.37%
O=C1CC(c2nc(-c3ccccc3)no2)CN1c1ccccc1 (stereo unspecified) 0.478%
COc1cccc2c1cc1c(=O)n(CC(=O)N3CCN(c4ccccc4)CC3)nc(C)n12 11.9%
Cc1cccc(NS(=O)(=O)c2ccc3c(c2)CC(C)N3C(=O)C2CCC2)c1C (stereo unspecified) 2.82%
Cc1ccc(-c2nc3ncccn3c2Nc2ccc3c(c2)OCCO3)cc1 46.5%
Cc1ccc(Cn2c(C)c3cnn(CC(=O)NCc4ccccc4)c(=O)c3c2C)cc1 -20.7%
CCN(CC)c1ccc(NC(=O)c2cnn(-c3ccccc3)c2-n2cccc2)c(C)c1 -0.328%
COc1ccc(Cn2c(=O)n(Cc3ccco3)c(=O)c3oc4ccccc4c32)cc1 -0.25%
Cc1cccc2sc(N(CCN(C)C)C(=O)c3ccc4c(c3)OCCO4)nc12 -3.65%
CCOc1ccc(CCNC(=O)CS(=O)(=O)Cc2nc(-c3ccc(OC)cc3)oc2C)cc1 8.34%
Cc1nc2cc(-c3ccccc3)nn2c(C)c1CCC(=O)Nc1ccc(F)cc1F 2.46%
COc1ccc(-c2nc(CS(=O)(=O)CC(=O)NCc3ccccc3Br)c(C)o2)cc1 -24.8%
CCOC(=O)c1c(NC(=O)COc2ccc(Cl)cc2C)sc2c1CCCCC2 -17.1%
Cc1ccc(C)c(Nc2cc(C(=O)NC3CCCC3)c3ccccc3n2)c1 -3.12%
COc1ccc(NC(=O)CC2C(=O)N(c3ccc(OC)cc3)C(=O)N2CCC2=CCCCC2)cc1 (stereo unspecified) -22%
COc1ccc(CCNC(=O)Cc2c(C)c3cc4c(C(C)(C)C)coc4c(C)c3oc2=O)cc1 -4.32%
